Patent US3959283A, “Amino-derivatives of 1,4-benzodioxan” (Laboratoire L. Lafon, priority 1974, dated 1976)
Structures can show the parent of a compound that is named as a salt.

What was measured:
β-receptors = experiment: Effects of adrenalin, isoprenalin and propanolol on flow rates after intraduodenal product of Example 11 (Experiments C and D); details: for changes in the graph after i.v. and intraduodenal injections: Experiment D, after product 15 mg/kg ID
[1] = Acute intravenous toxicity in mice, products of Examples 10 to 13 (LD50); details: mouse, in vivo, i.v., group of male and female mice
Description: (a) determined on a group of male and female mice,
(b) determined on a group consisting solely of female mice.

adrenergic receptors = experiment: Inhibition/reversal of tension effects of adrenalin, intravenous (products of Examples 11 to 13); assay type: in vivo; details: for effect of adrenalin (hypertension): successive doses
Procedure: the doses of CRL 40,150 from 0.5 to 4 mg/kg being administered successively.

dogs = experiment: Hypotensive effect in dogs anaesthetised with Nembutal; assay type: in vivo
Description: This hypotension manifests itself especially in a decrease in the differential pressure, the lowering of the diastolic pressure being greater than that of the systolic pressure.

adrenalin = experiment: Effect on the amines and reflexes: adrenalin; details: in vivo
Description: (§1) In Table III below, the effects of the products on the amines and the reflexes have been summarised.

acetylcholine = experiment: Effect on the amines and reflexes: acetylcholine; details: in vivo
Description: as §1

[2] = tested on: reflex relating to occlusion of the carotids; experiment: Effect on the amines and reflexes: occlusion of the carotids; details: in vivo
Description: as §1

[3] = Experiment C, adrenalin 2 mcg/kg i.v. after product, 2 minutes
[4] = Experiment C, adrenalin 2 mcg/kg i.v. after product, 5 minutes
[5] = Experiment C, adrenalin 2 mcg/kg i.v. after product, 10 minutes
[6] = Experiment C, adrenalin 10 mcg/kg ID at 15 hr. 20 min, 15 minutes
[7] = Experiment C, adrenalin 10 mcg/kg ID at 15 hr. 20 min, 40 minutes
[8] = Experiment C, adrenalin 10 mcg/kg ID at 16 hr. 3 min, 10 minutes

CNCC(O)c1ccc(O)c(O)c1 (centres unmarked) [adrenalin]
effect of adrenalin after blocking of the α-receptors (β-receptors; Experiment C): demonstrate the β-stimulating effect of this amine
femoral flow rate (β-receptors; [3]): does not change
increase in vertebral flow rate (β-receptors; [3]): 200%
vertebral flow rate (β-receptors; [3]): 60 mL/min
femoral flow rate (β-receptors; [4]): 108 mL/min
increase in femoral flow rate (β-receptors; [4]): 50%
increase in vertebral flow rate (β-receptors; [4]): 24%
vertebral flow rate (β-receptors; [4]): 68 mL/min
increase in femoral flow rate (β-receptors; [5]): 39%
increase in vertebral flow rate (β-receptors; [5]): 80%
increase in femoral flow rate (β-receptors; [6]): 56%
increase in vertebral flow rate (β-receptors; [6]): 190%
increase in femoral flow rate (β-receptors; [7]): 50%
increase in vertebral flow rate (β-receptors; [7]): 120%
femoral flow rate (β-receptors; [8]): 125 mL/min
increase in femoral flow rate (β-receptors; [8]): 73%
increase in vertebral flow rate (β-receptors; [8]): 220%
vertebral flow rate (β-receptors; [8]): 64 mL/min
changes in the graph after i.v. and intraduodenal injections (β-receptors): do not cause substantial changes

CC(C)NCC(O)c1ccc(O)c(O)c1 (centres unmarked) [isoprenalin]
changes in the graph after i.v. and intraduodenal injections (β-receptors): do not cause substantial changes

OC(CN1CCN(CC2COc3ccccc3O2)CC1)c1ccccc1 (centres unmarked) [Example 12, 1-[2-(1,4-Benzodioxanyl)-methyl]-4-[(2-hydroxy-2-phenyl)-ethyl]-piperazine dihydrochloride]
LD50 [1]: 40 mg/kg
effect of adrenalin (hypertension) (adrenergic receptors; after 0.5 mg/kg i.v.): 67%
effect of adrenalin (hypertension) (adrenergic receptors; after 1 mg/kg i.v.): 36%
effect of adrenalin (hypertension) (adrenergic receptors; after 2 mg/kg i.v.): 43%
hypertensive effect of adrenalin (adrenergic receptors; i.v., after each injection): gradually reduces the hypertensive effect of adrenalin and reverses the tension effects of the latter
hypotension (dogs): 37%
Effect on the amines and reflexes: adrenalin (adrenalin): reversal
Effect on the amines and reflexes: acetylcholine (acetylcholine): no change
Effect on the amines and reflexes: reflex relating to occlusion of the carotids [2]: unchanged
